Source: the supplement of paper PMC3334620
The full ranking holds about 33,000 sequences; the median of “E-score (-0.5 to 0.5)” is about -0.035, and the highest 2% start at about 0.34. This is one part of the list.

target: T1, Mot3 (UniProt P54785); assay: PBM E-score (8-mer binding enrichment) (E-score (-0.5 to 0.5)); higher = stronger / more preferred TF binding; most listed sequences are background and not binding sites; conditions: protein concentration: 200 nM; construct: GST-full length
T1 sequence: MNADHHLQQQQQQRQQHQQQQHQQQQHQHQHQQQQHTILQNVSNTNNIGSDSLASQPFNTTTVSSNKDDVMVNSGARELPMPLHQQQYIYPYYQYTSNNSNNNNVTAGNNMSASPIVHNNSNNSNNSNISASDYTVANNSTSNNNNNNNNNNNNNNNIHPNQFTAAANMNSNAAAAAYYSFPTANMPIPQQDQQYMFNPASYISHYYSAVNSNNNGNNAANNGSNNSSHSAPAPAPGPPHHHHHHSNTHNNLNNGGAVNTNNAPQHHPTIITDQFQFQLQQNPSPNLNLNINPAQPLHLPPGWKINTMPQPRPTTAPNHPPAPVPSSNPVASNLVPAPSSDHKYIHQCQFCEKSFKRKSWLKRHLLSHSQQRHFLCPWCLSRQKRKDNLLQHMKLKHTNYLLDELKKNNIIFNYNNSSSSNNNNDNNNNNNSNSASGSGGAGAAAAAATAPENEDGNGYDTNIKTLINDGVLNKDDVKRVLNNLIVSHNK
How it was run: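 Yeast transcription factors, full-length or as DNA-binding domains, were expressed with a GST tag using PURExpress in vitro transcription/translation. At about 100-200 nM they were applied to universal all-10-mer Agilent arrays, double-stranded by primer extension on fresh or once-stripped slides. Fluorescent anti-GST detected bound protein, and masliner normalised the scans. E-scores for ungapped eight-base words, pooled with reverse complements, came from the Universal PBM Analysis Suite.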

| Sequence | PBM E-score |
| --- | --- |
| AATGTTAG | 0.198 |
| ACTGGAAT | -0.0703 |
| CGCAGGGC | -0.0529 |
| GAGAGAAC | -0.0126 |
| ATCTCTCA | -0.0314 |
| GCTGGGAA | -0.198 |
| TAAGTGTA | 0.139 |
| CGCACCCC | -0.18 |
| TAACAGAA | 0.227 |
| TTAGCCAA | -0.119 |
| ACTGCGGC | -0.227 |
| CCGGGTAG | -0.218 |
| CGTTCGCA | -0.021 |
| CGTAACGA | -0.0547 |
| CGCTTAAA | 0.0156 |
| CGACCCCG | -0.139 |
| CATTTTGA | -0.063 |
| GCATACAC | 0.14 |
| AAATATAG | 0.108 |
| GAGGCTCA | -0.313 |
| AGACTACG | -0.238 |
| CCTTTATC | -0.0342 |
| CTCCCAGC | -0.0785 |
| ATTATTCA | 0.103 |
| TAAGGATA | -0.102 |

| Sequence | PBM E-score |
| --- | --- |
| AAGGAAGC | -0.157 |
| TAGAACCA | 0.0894 |
| ACCCCGCG | -0.222 |
| GTAGCAGA | -0.0399 |
| CCCCCAAC | -0.2 |
| ATCGGACC | -0.261 |
| GACGCCAC | -0.222 |
| ATGCCGGC | -0.108 |
| ACGCTAAC | 0.0757 |
| GCGACCGC | -0.25 |
| CTAGATGA | -0.0866 |
| AGAGGTGC | -0.142 |
| GTAATAAC | 0.294 |
| GAGGTTTA | -0.0892 |
| GTGCTGGA | -0.196 |
| CCTGTGGA | 0.0704 |
| GCAAGATA | -0.00371 |
| ATGGTGGA | -0.265 |
| AACTGTCT | 0.00608 |
| CCGTTTAG | -0.0137 |
| AGGGTCGA | -0.133 |
| AGCAGTGA | -0.155 |
| CCTCAAAG | -0.0515 |
| ATATGCAG | -0.0866 |
| GCTGGTCA | -0.166 |

| Sequence | PBM E-score |
| --- | --- |
| CAATTTGC | -0.00949 |
| GCCCTTCC | -0.266 |
| ATTTAGAG | 0.0596 |
| AAGCGTTA | -0.124 |
| AGTGAGTC | -0.11 |
| ACCTCAGT | -0.176 |
| CGAGAAAC | -0.167 |
| AACCGCTT | -0.00052 |
| ATTCGCTG | -0.166 |
| ATCGGGAG | -0.19 |
| GACCGCGC | -0.205 |
| AAGCGGAC | -0.199 |
| ACAATGAG | -0.0555 |
| CCACGCTC | -0.186 |
| ACGGTGAC | -0.0848 |
| ATCGACAC | 0.195 |
| CTTCACAA | 0.0967 |
| CACGGTGG | -0.0381 |
| ACCGGGGC | -0.341 |
| GCGAAGTA | 0.0402 |
| CCCCGGAA | -0.143 |
| CAACCTGG | -0.0919 |
| ACATAAAA | 0.212 |
| AAATCAGA | -0.0937 |
| CTGCCGAC | -0.214 |

| Sequence | PBM E-score |
| --- | --- |
| GATAGTAC | 0.0135 |
| AACAGTGG | -0.0626 |
| ATCTTTCG | -0.158 |
| CCTACCCC | -0.214 |
| CCGTCATA | -0.0245 |
| CAATTAGC | -0.104 |
| ACACTTTA | 0.23 |
| CTGATAAG | 0.0287 |
| TACCATGA | -0.277 |
| AGGGCCCG | -0.299 |
| ACCAATCA | -0.00666 |
| GTCTTTCA | -0.0122 |
| ACGTTTGC | 0.0468 |
| ACAGACAT | 0.109 |
| CCCCCACA | -0.228 |
| CCACGCCC | -0.268 |
| ACTTGTCT | 0.0723 |
| AGACGGGA | -0.146 |
| ATTCTCCA | -0.174 |
| ACTAACTC | -0.0537 |
| ACGTCGAT | 0.129 |
| CTGGGTCA | -0.176 |
| TATAGATA | -0.0617 |
| ATGGACTC | -0.262 |
| ATTCAACG | 0.117 |

| Sequence | PBM E-score |
| --- | --- |
| ATTGTAAA | 0.3 |
| ACCTATAC | 0.249 |
| CGTGCCAA | -0.0767 |
| TCACGCAA | 0.181 |
| CGTCACTC | -0.219 |
| AGGGGCTA | -0.0392 |
| AAATAAAT | 0.0867 |
| CATGTGCG | 0.0734 |
| GAGCTGTA | -0.0618 |
| CCCTGTTA | 0.12 |
| GGCGGCAC | -0.201 |
| AGTGGTGG | -0.235 |
| GGGAGTTA | -0.166 |
| CGGACCAA | -0.13 |
| CGGGTCTC | -0.0431 |
| AACCAGAT | -0.0683 |
| ACCGTAAC | -0.035 |
| AGACTAAC | 0.0197 |
| GTTTCTGA | 0.112 |
| TGCTCGAA | 0.0241 |
| CCCTAAAC | -0.142 |
| ATAGAATG | -0.0895 |
| CGCGAGCA | -0.187 |
| CCCTCATA | -0.134 |
| GGCCTGCA | -0.0526 |

| Sequence | PBM E-score |
| --- | --- |
| ATACTTAG | -0.105 |
| AGTTTTCG | 0.0727 |
| GGGGCAAC | -0.0256 |
| AAGCCCCC | -0.354 |
| GCATGGGC | -0.26 |
| TACCACCA | -0.215 |
| ATTTCTGA | 0.0425 |
| CTAAACGC | 0.0702 |
| ACCGTTTA | -0.0229 |
| AAGTTAAG | 0.0804 |
| ATTAGTGG | 0.0392 |
| CTCTATAC | 0.0402 |
| AGCGCTAA | -0.108 |
| TCTAGAAA | -0.0747 |
| TAATACGA | 0.156 |
| AGACCTAA | -0.161 |
| CAATCCCC | 0.0148 |
| AGGGGGCG | -0.136 |
| CAACTGTG | 0.16 |
| AGTCTACA | 0.16 |
| CATGCCGA | 0.0179 |
| AGTTCAAC | 0.105 |
| ATACTCAA | -0.00206 |
| CATACGAC | 0.0019 |
| CTCCAACA | 0.139 |

| Sequence | PBM E-score |
| --- | --- |
| CATTAGGC | 0.178 |
| AGCGTGAG | -0.164 |
| ATGCAGTG | 0.0731 |
| AATTCGCT | 0.043 |
| ACGACCTA | 0.0207 |
| AGGGCTTA | -0.107 |
| ACCTTCCA | 0.144 |
| GATATGAC | 0.0279 |
| GGACTCCC | -0.264 |
| AAATACAG | 0.212 |
| TAACAAGA | 0.309 |
| AATAACCC | -0.0722 |
| CGGACTCA | -0.172 |
| AATGTGGT | 0.0468 |
| AATCATGG | -0.0485 |
| TGAGGGAA | -0.122 |
| ATTTAAGG | 0.00043 |
| CTACGCTA | 0.00073 |
| AACGTCTC | 0.115 |
| AATAGTCA | -0.0175 |
| AGCAGGCC | -0.0206 |
| GCTCCAAA | -0.137 |
| ATCCTATG | -0.198 |
| AACGAGCA | 0.137 |
| ATTAATAA | 0.072 |

| Sequence | PBM E-score |
| --- | --- |
| ATCTCCGG | -0.256 |
| CGTCATCA | -0.0819 |
| CCCTACAC | 0.187 |
| AATGAGGT | -0.0627 |
| TACACGTA | 0.362 |
| CTAGTCTC | -0.0298 |
| CAACGCAC | 0.102 |
| ATAATAGC | 0.0909 |
| ATTTCTGG | -0.00973 |
| ATCTCGAA | 0.0527 |
| GGAGGATA | -0.00959 |
| CTGTGAGC | 0.119 |
| TCGACTAA | -0.0673 |
| CCGTGTCA | 0.277 |
| CTGCTACA | 0.121 |
| CGCGGAGA | -0.0988 |
| ATTCCTGA | 0.136 |
| AAATGACA | 0.0822 |
| TCGAGACA | -0.173 |
| CCGGGGCC | -0.357 |
| CCCCCCCC | -0.42 |
| CAAACTTC | 0.0359 |
| AGGTACTA | 0.301 |
| CCCTGGGC | -0.368 |
| CCTGTTCA | 0.0813 |

| Sequence | PBM E-score |
| --- | --- |
| AAATTTTC | -0.0703 |
| ACTTGTGG | 0.00314 |
| CACTTAGC | -0.135 |
| ACCTATCC | -0.0553 |
| CATGACTA | -0.00873 |
| AATTAATG | 0.034 |
| CCCACAAG | -0.0301 |
| CAAGGAGC | -0.0153 |
| AAGGATCG | 0.0926 |
| GAGGACGC | -0.122 |
| GAATGAGC | -0.0737 |
| GAGCTGGC | -0.259 |
| CCGTAGTC | -0.262 |
| ACACAGGA | 0.295 |
| CGTCCAGC | -0.17 |
| GCATGAGC | -0.115 |
| ATTGTGGC | -0.0184 |
| AAACCTCA | -0.122 |
| AAACGACC | -0.0983 |
